Laboratory results published in a compilation of properties of binary mixtures (doi:10.1021/acs.jced.0c00298).
The densities may have been worked out from excess volumes.

Assay: xn = mol fraction of the nth substance listed
Settings: 100 kPa

CO + CC[n+]1ccn(CCOC)c1.O=S(=O)([N-]S(=O)(=O)C(F)(F)F)C(F)(F)F
mass density (288.15 K, x2 = 0): 795.9 kg/m3
mass density (293.15 K, x2 = 0): 791.2 kg/m3
mass density (298.15 K, x2 = 0): 786.5 kg/m3
mass density (303.15 K, x2 = 0): 781.8 kg/m3
mass density (308.15 K, x2 = 0): 777 kg/m3
mass density (318.15 K, x2 = 0): 767.4 kg/m3

CC[n+]1ccn(CCOC)c1.O=S(=O)([N-]S(=O)(=O)C(F)(F)F)C(F)(F)F + CO
mass density (288.15 K, x1 = 0.1): 1106.5 kg/m3
mass density (288.15 K, x1 = 0.1997): 1240.7 kg/m3
mass density (288.15 K, x1 = 0.3966): 1361.5 kg/m3
mass density (288.15 K, x1 = 0.6953): 1436.7 kg/m3
mass density (288.15 K, x1 = 0.9016): 1463.6 kg/m3
mass density (288.15 K, x1 = 1): 1471.8 kg/m3
mass density (293.15 K, x1 = 0.1): 1101.4 kg/m3
mass density (293.15 K, x1 = 0.1997): 1235.5 kg/m3
mass density (293.15 K, x1 = 0.2999): 1310 kg/m3
mass density (293.15 K, x1 = 0.3966): 1356.3 kg/m3
mass density (293.15 K, x1 = 0.5): 1389.9 kg/m3
mass density (293.15 K, x1 = 0.5984): 1413.9 kg/m3
mass density (293.15 K, x1 = 0.6953): 1431.6 kg/m3
mass density (293.15 K, x1 = 0.7934): 1446.1 kg/m3
mass density (293.15 K, x1 = 0.9016): 1458.5 kg/m3
mass density (298.15 K, x1 = 0.1997): 1230.4 kg/m3
mass density (298.15 K, x1 = 0.3966): 1351.1 kg/m3
mass density (298.15 K, x1 = 0.5): 1384.7 kg/m3
mass density (298.15 K, x1 = 0.5984): 1408.7 kg/m3
mass density (298.15 K, x1 = 0.6953): 1426.5 kg/m3
mass density (298.15 K, x1 = 0.7934): 1441 kg/m3
mass density (298.15 K, x1 = 0.9016): 1453.4 kg/m3
mass density (298.15 K, x1 = 1): 1461.7 kg/m3
mass density (303.15 K, x1 = 0.1): 1091.3 kg/m3
mass density (303.15 K, x1 = 0.1997): 1225.2 kg/m3
mass density (303.15 K, x1 = 0.3966): 1346 kg/m3
mass density (303.15 K, x1 = 0.5984): 1403.6 kg/m3
mass density (303.15 K, x1 = 0.6953): 1421.4 kg/m3
mass density (303.15 K, x1 = 0.7934): 1435.9 kg/m3
mass density (303.15 K, x1 = 0.9016): 1448.4 kg/m3
mass density (308.15 K, x1 = 0.1): 1086.2 kg/m3
mass density (308.15 K, x1 = 0.5): 1374.5 kg/m3
mass density (308.15 K, x1 = 0.6953): 1416.3 kg/m3
mass density (308.15 K, x1 = 0.9016): 1443.4 kg/m3
mass density (308.15 K, x1 = 1): 1451.6 kg/m3
mass density (313.15 K, x1 = 0.1): 1081 kg/m3
mass density (313.15 K, x1 = 0.1997): 1214.9 kg/m3
mass density (313.15 K, x1 = 0.2999): 1289.4 kg/m3
mass density (313.15 K, x1 = 0.3966): 1335.7 kg/m3
mass density (313.15 K, x1 = 0.5): 1369.4 kg/m3
mass density (313.15 K, x1 = 0.9016): 1438.4 kg/m3
mass density (313.15 K, x1 = 1): 1446.6 kg/m3
mass density (318.15 K, x1 = 0.1): 1075.9 kg/m3
mass density (318.15 K, x1 = 0.1997): 1209.7 kg/m3
mass density (318.15 K, x1 = 0.3966): 1330.6 kg/m3
mass density (318.15 K, x1 = 0.5): 1364.3 kg/m3
mass density (318.15 K, x1 = 0.5984): 1388.4 kg/m3
mass density (318.15 K, x1 = 0.6953): 1406.2 kg/m3
mass density (318.15 K, x1 = 0.7934): 1420.8 kg/m3
mass density (318.15 K, x1 = 0.9016): 1433.4 kg/m3
mass density (318.15 K, x1 = 1): 1441.6 kg/m3
